Results from PubChem BioAssay AID1347071 (National Center for Advancing Translational Sciences (NCATS), 2019).
In all, about 410,000 compounds went through this assay and about 260 (0.063%) were called active. The inconclusive results got no clear call from the source; some entries with a clear call stand among them for comparison. Calls follow the shape of the dose curve; as a rule, active = well fitted activation curve with a large enough effect; inconclusive = small, poorly fitted or top-dose-only effect; inactive = no such curve, though single readings can be large or run the other way. No potency is given beside an inconclusive call; the fits are too rough.

test: qHTS for compounds that reverse cellular toxicity of Amyloid beta (A-beta) peptide in yeast: Primary Screen; conditions: yeast expressing A-beta42, growth rescue, OD600, 48 h; growth rescue: at 46.1 µM (top of the series), 0% DMSO, 100% iron-clioquinol control; also: nearly all actives have a fitted effect of over 55% in size
Text: The A-beta peptide is produced by the processing of the amyloid precursor protein (APP) by two proteases, beta and gamma secretases. […] A-beta42 is regarded as the most amyloidogenic form due to its hydrophobicity; however, precisely how A-beta42 induces neurotoxicity is unclear. To understand further this biology and its potential therapeutic implications for human neurodegenerative disease, a quantitative high-throughput screen for compounds that reverse the cellular toxicity of the A-beta peptide was developed. A yeast based screen was used because it recapitulates the salient feature of protein mis-folding disorder accurately. This cell-based phenotypic screen provides a significant, unbiased advantage by letting the compounds and models inform us which proteins or pathways are most relevant. The ideal chemical candidates would therefore have activity in both our primary yeast and secondary neuronal toxicity assays, as well as in mouse models. They will be valuable tools for dissecting diverse protein homeostasis pathologies and could potentially become the focus for future pre-clinical development. For this luminescence assay, inhibition of A-beta rescues the toxic effect in the yeast cell, resulting in increase of signals and the desired phenotype of "Activator". This screen is run against the Molecular Libraries Small Molecule Repository (MLSMR) and the NCGC Sytravon Library Collection.
NIH Chemical Genomics Center [NCGC]
NIH Molecular Libraries Probe Centers Network [MLPCN]
Assay Submitter (PI): Susan Lindquist, Whitehead Institute, Massachusetts Institute of Technology
[1] Vassar R,et al (1999). Beta-secretase cleavage of Alzheimer's amyloid precursor protein by the transmembrane aspartic protease BACE. Science. 286: 735-741.
[2] Yan R, et al (1999). Membrane-anchored aspartyl protease with Alzheimer's disease beta-secretase activity. Nature. 402: 533-536.
Two and a half microliter / well of yeast growth medium were dispensed in a 1536 assay plate. Compounds were pinned using the Kalypsys robotic system followed by addition of 2.5 uL / well yeast solution. The assay plates were incubated at 30 C. After 48 hr, the absorbance signal at 600 nm was obtained using the PerkinElmer ViewLux plate reader to assess yeast growth. The data was normalized to the positive control of an equimolar mixture of ferric chloride (FeCl3) and clioquinol and to the negative control DMSO.
Potency is read from the fitted curve at half-maximal effect; tags tell the direction and shape of the fitted curve.

SMILES	Potency	growth rescue
COc1ccc(C(=O)NNC(=S)NC(=O)/C=C/c2cccs2)cc1	active: 8.91 µM	
O=C(CCSc1ccccc1)NCCSCc1ccco1	inconclusive [activator, partial curve]	
Cc1cccc(CN2[C@@H](CC(C)C)COCCS2(=O)=O)c1	inactive	
S=c1[nH]nc(COc2ccc(Cl)cc2Cl)n1-c1ccccc1	inconclusive [activator, single point]	
COc1cc(C(=O)NNC(=S)NC(=O)/C=C/c2ccccc2)cc(OC)c1OC	inconclusive [activator, single point]	
Cc1ccc(CSc2nc3c([nH]c4ccccc43)c(=O)n2C)cc1	inactive	
CCNC(=O)C1CC(=O)OC12CCCCC2 (stereo not given)	inconclusive [activator, full curve]	
CCOc1ccc(OCC(=O)OC(C)C(=O)Nc2ccc(Cl)cn2)cc1 (stereo not given)	inconclusive [activator, partial curve]	
Cc1cc(C(=O)CSc2nnnn2C)c(C)n1CCc1ccc(F)cc1	inconclusive [activator, partial curve, poor fit]	
COc1ccc(CN(Cc2ccco2)c2cnc(S(C)(=O)=O)nc2C(=O)Nc2ccc(C)c(Cl)c2)cc1	inconclusive [activator, partial curve, poor fit]	
COc1ccccc1C(=O)Nc1cc2ccccc2oc1=O	inconclusive [activator, full curve, poor fit]	
Cc1cccc(N2CCN(C(=O)CN3CCSc4ccccc43)CC2C)c1 (stereo not given)	inconclusive [activator, partial curve, poor fit]	
Nc1nc(CSc2ccccc2)nc(N2CCCCC2)n1	inconclusive [activator, single point]	
S=C(CN1CCCC1=S)NCCc1ccccc1	inconclusive [activator, partial curve, poor fit]	
CNC(=O)CSc1nc(-c2ccccc2)c(-c2ccccc2)[nH]1	inconclusive [activator, partial curve]	
CCOC(=O)c1ccc(NC(=O)Cn2cc(C(=O)c3ccc(CC)cc3)c(=O)c3ccc(C)nc32)cc1	inactive	
CCN1CCN(C2=C(NS(=O)(=O)c3ccc(C)cc3)C(=O)c3ccccc3C2=O)CC1	inconclusive [activator, single point]	
O=c1[nH]c(-c2ccccn2)nc2ccccc12	inconclusive [activator, single point]	
Cc1cccc(OCc2nc(-c3ccccn3)n[nH]2)c1	inconclusive [activator, partial curve, poor fit]	
CC(=O)Nc1sc(NC(=O)c2ccco2)nc1-c1cccs1	inactive	
CC(=O)c1c(C)n(-c2ccc(Cl)cc2)c2ccc(O)cc12		inconclusive: -19.6% [activator]
COc1ccc2oc(C(=O)OCC(=O)NCC3CCCO3)c(C)c2c1 (stereo not given)	inactive	
OC(COc1ccccc1)Cn1c2ccccc2c2ccccc21 (stereo not given)	inconclusive [activator, single point]	

SMILES	Potency	growth rescue
FC(F)(F)Oc1ccc(NC(=S)Nc2ccccc2N2CCOCC2)cc1	inconclusive [activator, partial curve, poor fit]	
Cc1cccnc1Nc1nc(-c2ccc(O)c(O)c2)cs1	inactive	
CC(=O)COc1cc(C)cc2oc(=O)c(C)c(C)c12	inactive	
OCCN(Cc1ccccc1)C(=S)NC1CCCCC1	inconclusive [activator, partial curve, poor fit]	
CCSc1nc2sc3c(c2c(=O)[nH]1)CCCC3	inactive	
O=C(CCc1ccccc1F)N1CCN(c2ccc(C(F)(F)F)cn2)CC1	inconclusive [activator, single point]	
Cc1ccc(C)c(Cn2c(=O)n(CCCCC(=O)NCc3ccccc3Cl)c(=O)c3ccccc32)c1	inactive	
O=C(CCc1ccccc1)NC(=S)Nc1ccccc1[N+](=O)[O-]	inconclusive [activator, single point]	
COc1ccc(-c2noc(CSc3nc(N)c(-c4ccccc4)c(=O)[nH]3)n2)cc1OC	inactive	
Cc1ccc(C(C)C)c2c1C(c1ccc3c(c1)OCO3)CC(=O)O2 (stereo not given)	inactive	
Cc1ccc(C(=O)NCc2ccc3c(c2)OCO3)c(C)c1	inconclusive [activator, partial curve, poor fit]	
CNC(=S)N/N=C(\C)c1ccc2c(c1)OCCO2	inconclusive [activator, partial curve, poor fit]	
CCn1cc(Cl)c(C(=O)N2N=C(c3ccc4ccccc4c3)CC2c2ccccc2O)n1 (stereo not given)	inconclusive [activator, partial curve, poor fit]	
COc1cc(CNc2nc3c(C)cc(C)cc3s2)ccc1O	inconclusive [activator, partial curve]	
C=CCn1c(NCCc2ccccc2)nc2c1c(=O)n(C)c(=O)n2C	inactive	
CS/C(N)=N/C(=S)Nc1cccc(Cl)c1	active: 12.6 µM	
Oc1c(C=C2N=c3ccccc3=N2)sc(=S)n1-c1ccc(F)cc1	inconclusive [activator, single point]	
O=C(CS(=O)(=O)c1ccccc1)c1cc2ccccc2oc1=O	inconclusive [activator, single point]	
Cc1ccc(SCCNC(=S)Nc2cc(C)ccc2C)cc1	inconclusive [activator, partial curve, poor fit]	
CCn1c(C(=O)N2CCC(C(=O)N3CCN(c4cc(C)ccc4C)CC3)CC2)cc2sccc21	inconclusive [activator, partial curve, poor fit]	
c1ccc2c(c1)nc1sccn12	inconclusive [activator, partial curve, poor fit]	
CCc1ccc(NC(=O)CC2C(=O)N(c3ccc(Cl)cc3)C(=O)N2Cc2ccco2)cc1 (stereo not given)	inconclusive [activator, partial curve, poor fit]	
